Some of the results follow. Binding of human antibodies (heavy:light variable regions, tested as scFv in one mRNA-display pool) to influenza hemagglutinin, with or without the stem antibody CR9114 bound first. Score = (mean enrichment − median) / interquartile range of that screen; higher = more enriched, 0 = typical non-binder. Active = above the paper's cut-off per screen: stems 28; unblocked H1 Solomon Islands 5, H1 Michigan 3, H3 5, H5 19, H7 2.85, both B 5; blocked 9, 7, H5 10, H7 10, B Phuket 10, B Lee 11.5. Scores are scaled within each screen and are no affinities; replicates correlate at about 0.6 to 0.9, and antibodies rare in the pool are noisier.

The values below come from the supplement of paper PMC11383711.

B1: C7-3-C02 (protein)
chain 1: QVQLQESGPGLVKPSETLSLTCNVSGDSVSSGNYYWSWIRQPPGKALEWIGYIYNRGRTKYNSALKSRVTISEDTANNQFSLRLTSVTAADTAIYYCARDNVVSLGRFGEFALYIDYWGRGTLVTVS
chain 2: DIQMTQSPSSLSASVGDRVTITCRASQSINTYLNWYQQKPGAAPKLLIYGASTLQSGVPSRFSGGGSGTDFTLTISSLQPDDFATYHCQQSYGIPLTFGQGTRLEIK
B2: antibody 2G02 (protein)
chain 1: EVQLVESGGGLVQPGRSLRLSCAASGFTFDDYTMHWVRQAPGRGLEWVSSINWVSSTVGYADSVKGRFTISRDNAKNSLYLQMNSLRPEDTALYYCARDRRTDATMDYYFYSAMDVWGRGTTVTVSS
chain 2: DIQMTQSPSSLSASVGDRVTITCQASQDISKYLNWYQQKPGKAPKLLIYDASTLETGVPSRFSGSASGTDFTFTISNLQPEDIATYYCQQYDNLPITFGQGTRLEIK
B3: R95-2H10 (protein)
chain 1: EVQLVASGGALGQPDRSLRLSCAASGFIFEEYALHWVRQAPGKGLEWVSNVSWNSGYRAYADSVKGRFTISRDNAEKSLSLQMNSVRREDTAFYYCAKDRAGHLGSGSYFDSWGQGTLVTVSS
chain 2: SYELTQPPSVSVAPGQTARIPCGGNNIGSKSVHWYQQKPGQAPVLVVYDDSDRPSGIPERFSGSNSGNTATLTISRVEAGDEADYYCQVWDGYSDPLFVFGTGTKV
B4: antibody 4G04 (protein)
chain 1: VQLVESGGAVVQPGRSLRLSCTASGFIFSRFAIHWVRQAPGKALEWVAVISDDASKEDYADSVKGRFIISRDNSKSTLYLQMNSLTTEDTAVYYCARDPTHSGDIISWFFDSWGQGILVTVSS
chain 2: SYELTQPPSVSVSPGQTANITCSGDKLGDKYTSWYQQKSGQSPVLVIYHDTRRPSGIPERFSGSSSGNTATLTISGTQVMDEADYYCQAWVWDSYVVFGGGTKLTVL
B5: C1-2-B02 (protein)
chain 1: VQLVQSGAELKKPGASVKVSCKASGYTFTDYYLHWVRQAPGQGLEWMGWIKPNFGGTIYAQKFQGRVTVTSDTSINTAYMELSRLTSDDTAVYYCARAVYYDLTSDFCVDCYDAFDVWGQGTMVTVSS
chain 2: DIQLTQSPSFLSAFVGDRVTITCRASQGISTYLAWYQQKPGKAPKLLIYAASILQSGVPSRFRGSGSGTEFTLTISSLQPEDFATYYCQQLNSYVVTFGQGTKVEIK
B6: antibody 3G04 (protein)
chain 1: VQLVESGGAVVQPGRSLRVSCAASGFNFRTYGMYWVRQAPGKGLEWVALISYDGDKKFYADFAKGRFTISRDNSKNRFYLQMNSLQSDDTAMYYCAKDGPRGGGSGSLAHWGQGTLVTVSS
chain 2: VSASPGHKITISCSGSGPNIGTNRVSWYQQFPGTVPRPLIYDDYLRPSGIPERFSGSKSGTSATLDITELQTGDEADYYCGTWDSSLSVWVFGGGTKLTVL

One assay deals with Influenza A H1N1 A/Michigan/45/2015 hemagglutinin ectodomain. Description: mRNA display binding score; higher = more enriched on the antigen. Particulars: antigen blocked with: 2 µM CR9114 IgG. As for the experimental part:
(§1)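 A pool of natively paired antibodies, displayed as scFv on mRNA, was selected once on antigen-coated beads and sequenced before and after; two replicates.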
Take B1: the “mRNA display binding score” value was active: 32.9.
As to B2, the “mRNA display binding score” value is inactive: 0.576.
The same measure, in the same setting: for B3 the value was inactive: -0.486; for B4, inactive: 0.273; for B5, inactive: -0.124.
As to B6, the “mRNA display binding score” value was inactive: -0.173.

Still in this assay, the particulars now being: antigen blocked with: nothing.
B1: the “mRNA display binding score” value is inactive: 0.794.
Turning to B2, the “mRNA display binding score” value was inactive: -0.445.
With B3, the “mRNA display binding score” value was inactive: -0.449.
On the same count and under the same terms, for B4 the value was inactive: -0.117; for B5, inactive: 0.
In the case of B6, the “mRNA display binding score” value is inactive: -0.163.

The target in the next assay is Influenza A H1N1 A/Solomon Islands/3/2006 hemagglutinin ectodomain. Described as above. The note with it: antigen blocked with: 2 µM CR9114 IgG. How it is done: as §1
Turning to B1, the “mRNA display binding score” value is inactive: 4.76.
For the molecule B2, the “mRNA display binding score” value was inactive: 0.89.
For the molecule B3, the “mRNA display binding score” value was inactive: -0.534.
In the case of B4, the “mRNA display binding score” value is inactive: -0.132.
Turning to B5, the “mRNA display binding score” value was inactive: 0.326.
With B6, the “mRNA display binding score” value is inactive: -0.382.

Staying with this assay, now noted: antigen blocked with: nothing.
Consider B1, for which the “mRNA display binding score” value was inactive: 4.
Regarding B2, the “mRNA display binding score” value is inactive: -0.0203.
Consider B3, for which the “mRNA display binding score” value was inactive: -0.415.
On the same count and under the same terms, for B4 the value was inactive: -0.611; for B5, inactive: -0.158.
B6: the “mRNA display binding score” value was inactive: -0.119.

The target in another assay is Influenza A H3N2 A/Singapore/INFIMH-16-0019/2016 hemagglutinin ectodomain. The assay is described as above. The note with it: antigen blocked with: nothing. As for the experimental part: as §1
As to B1, the “mRNA display binding score” value is inactive: -0.206.
Consider B2, for which the “mRNA display binding score” value is inactive: -0.143.
With B3, the “mRNA display binding score” value is inactive: 0.101.
B4: the “mRNA display binding score” value is inactive: -0.369.
Take B5: the “mRNA display binding score” value was inactive: 0.0274.
Regarding B6, the “mRNA display binding score” value was inactive: -0.231.

In another assay the target is Influenza A H5N1 A/Qinghai/1A/2005 hemagglutinin ectodomain. The description is as above. The note with it: antigen blocked with: 2 µM CR9114 IgG. How it is done:
as §1
Consider B1, for which the “mRNA display binding score” value was active: 20.2.
With B2, the “mRNA display binding score” value was inactive: -0.374.
With B3, the “mRNA display binding score” value was inactive: -0.711.
Turning to B4, the “mRNA display binding score” value is inactive: -0.114.
For the molecule B5, the “mRNA display binding score” value is inactive: 0.0473.
As to B6, the “mRNA display binding score” value was inactive: -0.294.

Staying with this assay, now noted: antigen blocked with: nothing.
As for B1, the “mRNA display binding score” value is inactive: 18.7.
Turning to B2, the “mRNA display binding score” value is inactive: 0.69.
For B3, the “mRNA display binding score” value was inactive: -0.377.
In the case of B4, the “mRNA display binding score” value is inactive: -0.385.
Consider B5, for which the “mRNA display binding score” value was inactive: -0.436.
Regarding B6, the “mRNA display binding score” value was inactive: 0.0602.

Another assay deals with Influenza A H7N9 A/Shanghai/2/2013 hemagglutinin ectodomain. The description is as above. The note with it: antigen blocked with: 2 µM CR9114 IgG. How it is done: as §1
Consider B1, for which the “mRNA display binding score” value was inactive: -0.0833.
Turning to B2, the “mRNA display binding score” value is inactive: -0.884.
On the same count and under the same terms, in the case of B3 it was inactive: -0.412; in that of B4, inactive: 0.119; in that of B5, inactive: -0.142.
Take B6: the “mRNA display binding score” value was inactive: -0.817.

The assay is the same for the next values; noted with them: antigen blocked with: nothing.
In the case of B1, the “mRNA display binding score” value was inactive: -0.32.
As for B2, the “mRNA display binding score” value is inactive: -0.487.
Still for that read-out and setting: in the case of B3 it was inactive: -0.492.
Consider B4, for which the “mRNA display binding score” value is inactive: 0.0513.
In the case of B5, the “mRNA display binding score” value was inactive: 0.0656.
For the molecule B6, the “mRNA display binding score” value was inactive: -0.211.

The target in the next assay is Influenza B/Lee/1940 hemagglutinin ectodomain. Described as above. Particulars: antigen blocked with: 2 µM CR9114 IgG. How it is done: as §1
Take B1: the “mRNA display binding score” value is inactive: 1.02.
With B2, the “mRNA display binding score” value is active: 82.7.
Same read-out and setting: in the case of B3 it was inactive: -0.296; in that of B4, inactive: 0.362.
For the molecule B5, the “mRNA display binding score” value was inactive: 3.81.
Still for that read-out and setting: in the case of B6 it was inactive: -0.241.

The assay is the same for the next values; noted with them: antigen blocked with: nothing.
As to B1, the “mRNA display binding score” value was inactive: -0.211.
Consider B2, for which the “mRNA display binding score” value is active: 134.
For B3, the “mRNA display binding score” value was inactive: -0.404.
On the same count and under the same terms, in the case of B4 it was inactive: 0.771; in that of B5, inactive: 4.41.
B6: the “mRNA display binding score” value was active: 9.55.

Another assay has as its target Influenza B/Phuket/3073/2013 hemagglutinin ectodomain. The assay is described as above. The note with it: antigen blocked with: 2 µM CR9114 IgG. How it is done:
as §1
With B1, the “mRNA display binding score” value was inactive: -0.407.
Still for that read-out and setting: in the case of B2 it was active: 12.9; in that of B3, inactive: -0.527; in that of B4, inactive: -0.349.
With B5, the “mRNA display binding score” value is inactive: 0.142.
In the case of B6, the “mRNA display binding score” value was inactive: 0.177.

Still in this assay, the particulars now being: antigen blocked with: nothing.
Take B1: the “mRNA display binding score” value was inactive: -0.013.
With B2, the “mRNA display binding score” value is inactive: 4.17.
Turning to B3, the “mRNA display binding score” value is inactive: -0.377.
As for B4, the “mRNA display binding score” value is inactive: -0.118.
For B5, the “mRNA display binding score” value was inactive: -0.0334.
The same measure, in the same setting: for B6 the value was inactive: 1.58.
